Out of some 370,000 compounds screened, about 150 (0.041%) were called active. Inconclusive means that the source gave no clear call. Such entries were picked first, then a sample of the others. Calls follow the shape of the dose curve; as a rule, active = well fitted inhibition curve with a large enough effect; inconclusive = small, poorly fitted or top-dose-only effect; inactive = flat fitted curve, though single readings scatter. Potencies of inconclusive entries are left out as doubtful fits.
Each molecule was assayed against Beta-lactamase (Escherichia coli (strain K12)) (UniProt P00811) (assay: qHTS Inhibitors of AmpC Beta-Lactamase (assay with detergent)). Conditions: AmpC hydrolysis of nitrocefin, absorbance 480 nm, 0.01% Triton; series mostly up to 114 µM.
UniProt P00811, sequence (P00811 whole entry, looked up): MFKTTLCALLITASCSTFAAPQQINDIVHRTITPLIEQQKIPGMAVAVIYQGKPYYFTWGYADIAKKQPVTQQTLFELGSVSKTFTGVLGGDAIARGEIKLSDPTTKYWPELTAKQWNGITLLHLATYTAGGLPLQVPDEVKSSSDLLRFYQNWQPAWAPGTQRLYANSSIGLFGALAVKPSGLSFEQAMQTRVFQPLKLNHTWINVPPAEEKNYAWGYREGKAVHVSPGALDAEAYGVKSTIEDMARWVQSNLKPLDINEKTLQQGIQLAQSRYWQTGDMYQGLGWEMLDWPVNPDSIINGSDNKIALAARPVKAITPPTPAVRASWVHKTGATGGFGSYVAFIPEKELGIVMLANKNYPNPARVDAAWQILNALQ
Summary of the method: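 20 mM phosphate pH 7.0 + 0.01% (detergent screen) or 0.0001% Triton X-100; 5.3 nM AmpC reagent; cpd preinc 15 min RT; nitrocefin (800 uM stock) to start; A480 q20 s × 4 min; Activity was normalised to no-enzyme and no-compound control wells.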
CC(=O)N1CCc2cc(S(=O)(=O)C(C)CC(=O)NCc3ccc(C)o3)ccc21 (configuration not stated) was tested, and the Potency was “inactive”.
With COc1cccc(C(C(=O)NC2CCCC2)N(C(=O)c2ccco2)C2CC2)c1OC (configuration not stated) the Potency was “inactive”.
CC(=O)NS(=O)(=O)c1ccc(NC(=S)NC(=O)C(C)C)cc1 was tested, and the Potency was inconclusive [inhibitor, full curve, poor fit].
For COc1ccc(-c2cc(C(=O)Nc3ccc(C#N)cc3)no2)cc1, the Potency was “inactive”.
In the case of O=C1c2ccccc2S(=O)(=O)N1CC(O)COc1ccc(Cl)cc1 (configuration not stated), the Potency is reported as inconclusive [inhibitor, full curve, poor fit].
In the case of Cc1sc2nc(SCC(=O)Nc3cccc(C(=O)O)c3)[nH]c(=O)c2c1C, the Potency is reported as inconclusive [inhibitor, full curve, poor fit].
COc1ccc(C[C@@H](NS(=O)(=O)c2ccc(C(=O)O)cc2)C(=O)O)cc1 was tested, and the Potency was inconclusive [inhibitor, full curve, poor fit].
In the case of O=C1CCC2CCCCC2(O)O1 (configuration not stated), the Potency is reported as inconclusive [inhibitor, single point].
In the case of CCC(O)(CCN1CCCCC1)c1ccccc1 (configuration not stated), the Potency is reported as inconclusive [inhibitor, single point].
With CCOC(=O)Cc1c(C)nc2c(-c3ccc(OC)c(OC)c3)c(C)nn2c1C the Potency was “inactive”.
With COc1ccc(Nc2nnc(SCC(=O)NC3CC3)s2)cc1 the Potency was inconclusive [inhibitor, full curve, poor fit].
In the case of COc1ccc(-n2c(=O)[nH]cc(C(=O)Nc3ccccc3)c2=O)cc1, the Potency is reported as inconclusive [inhibitor, full curve].
For CCC(C)N1CCCCC1C(=O)Nc1c(C)cc(C)cc1C (configuration not stated), the Potency was inconclusive [inhibitor, single point].
In the case of Cc1ccc(CNC(=O)CC(C)S(=O)(=O)c2ccc3c(c2)NC(=O)CO3)cc1 (configuration not stated), the Potency is reported as “inactive”.
CCOC(=O)c1sc(NC(=O)C(CC)Sc2nccn2C)nc1C (configuration not stated) was tested, and the Potency was inconclusive [inhibitor, partial curve].
In the case of CC(C)c1ccc(NC(=S)Nc2ccc(OC(F)(F)F)cc2)cc1, the Potency is reported as inconclusive [inhibitor, full curve, poor fit].
With Cn1c(=O)c2c(nc(NCCNC(=O)c3ccco3)n2Cc2ccccc2F)n(C)c1=O the Potency was inconclusive [inhibitor, full curve, poor fit].
For CCc1c(C)sc(NC(=S)NC(C)C2CCCO2)c1C(=O)OC (configuration not stated), the Potency was inconclusive [inhibitor, full curve, poor fit].
CCN1C/C(=C/c2cccs2)c2nc3ccccc3c(C(=O)O)c2C1 was tested, and the Potency was inconclusive [inhibitor, full curve, poor fit].
In the case of COc1cc(NC(=O)CCN2CCOCC2)cc(OC)c1, the Potency is reported as inconclusive [inhibitor, partial curve, poor fit].
For O=C(COC(=O)/C=C/c1ccccc1[N+](=O)[O-])NC1CC1, the Potency was “inactive”.
For O=C1NC(c2cc3ccccc3nc2Cl)Nc2ccccc21 (configuration not stated), the Potency was inconclusive [inhibitor, full curve, poor fit].
In the case of N#CC1=C(Nc2ccccc2)SC=C(c2ccc(Cl)c(Cl)c2)N=C1N1CCOCC1, the Potency is reported as inconclusive [inhibitor, full curve, poor fit].
In the case of COC(OC)c1ccnc(-c2ccc(OC(=O)c3cccs3)cc2)n1, the Potency is reported as “inactive”.
In the case of O=C(NCc1cccnc1)c1sc2cc(Cl)ccc2c1Cl, the Potency is reported as inconclusive [inhibitor, full curve, poor fit].
With O=C(Cc1cccs1)NCc1ccco1 the Potency was “inactive”.
With Cc1ccccc1Cn1nc(C)c(NC(=O)c2ccccc2)c1C the Potency was inconclusive [inhibitor, partial curve, poor fit].
With O=C(CNC(=O)c1ccc(Br)o1)NNC(=O)c1ccccc1 the Potency was inconclusive [inhibitor, full curve, poor fit].
With COc1ccccc1C1C2CCCCC2(O)CCN1CC(=O)Nc1ccccc1 (configuration not stated) the Potency was “inactive”.
For CSCCC(NC(=O)c1ccccc1Cl)C(=O)NNC(=O)c1ccncc1 (configuration not stated), the Potency was inconclusive [inhibitor, full curve].
With CCN1CCN(C(=O)N(CC(=O)Nc2ccc(C(N)=O)cc2)S(=O)(=O)c2ccc(C)cc2)CC1 the Potency was inconclusive [inhibitor, full curve].
For O=c1[nH]c2cc3c(cc2cc1CN(CCO)S(=O)(=O)c1ccccc1Cl)OCCO3, the Potency was inconclusive [inhibitor, partial curve, poor fit].
CC1CC(=O)Nc2ccccc2N1C(=O)CSc1nnnn1C(C)C (configuration not stated) was tested, and the Potency was inconclusive [inhibitor, full curve, poor fit].
In the case of Cc1c(C(=O)NCc2ccco2)oc2ccc(Br)cc12, the Potency is reported as inconclusive [inhibitor, single point].
For CCOc1ccccc1NC(=O)c1ccc(NC(=O)C2CCCO2)cc1 (configuration not stated), the Potency was inconclusive [inhibitor, partial curve].
With CCn1c(O)c(C2=NCCCC2)c2ccccc21 the Potency was “inactive”.
CC1(C)CC(=O)C(C(C2=C(O)CC(C)(C)CC2=O)c2cccc(O)c2)C(=O)C1 (configuration not stated) was tested, and the Potency was inconclusive [inhibitor, single point].
With N#Cc1ccccc1NC(=O)CN1CCN(Cc2ccccc2)CC1 the Potency was inconclusive [inhibitor, partial curve, poor fit].
With CSc1nc2c(cnn2-c2ccc(C)c(C)c2)c(=O)[nH]1 the Potency was inconclusive [inhibitor, partial curve, poor fit].
In the case of CC1=CC(C)(C)n2c(O)c(N=NC(N)=S)c3cccc1c32, the Potency is reported as inconclusive [inhibitor, full curve, poor fit].
For CCCSc1ncc(Cl)c(C(=O)Nc2ccc(OC)cc2OC)n1, the Potency was “inactive”.
For CCCCn1c(N)c(N(CC(C)C)C(=O)c2cnccn2)c(=O)[nH]c1=O, the Potency was inconclusive [inhibitor, full curve, poor fit].
With CN1/C(=C\C(=O)COC(=O)C2COc3ccccc3O2)C(C)(C)c2ccccc21 (configuration not stated) the Potency was inconclusive [inhibitor, full curve, poor fit].
In the case of COc1cc(C(=O)Nc2ccc(F)cc2Cl)ccc1OCC(=O)N1CCOCC1, the Potency is reported as inconclusive [inhibitor, full curve, poor fit].
In the case of O=C(COC(=O)c1cccc(-n2cnnn2)c1)c1ccc(Br)cc1, the Potency is reported as inconclusive [inhibitor, full curve, poor fit].
Cc1ccc2oc(C(=O)NCC(c3ccco3)N3CCCC3)c(C)c2c1 (configuration not stated) was tested, and the Potency was “inactive”.
With CCOC(=O)Cc1csc(NC(=O)Cc2ccc([N+](=O)[O-])cc2)n1 the Potency was inconclusive [inhibitor, full curve, poor fit].
For Cc1nnc(SCC(=O)Nc2ccc(Cl)cn2)n1Cc1ccccc1, the Potency was inconclusive [inhibitor, full curve, poor fit].
Cc1c(NC(=O)CN2C(=O)NC3(CCCCC3C)C2=O)cccc1[N+](=O)[O-] (configuration not stated) was tested, and the Potency was inconclusive [inhibitor, partial curve, poor fit].
For Cc1ccc2nc(-c3ccccc3O)c(Nc3ccc4c(c3)OCCO4)n2c1, the Potency was inconclusive [inhibitor, partial curve].
With O=C(NCc1ccc(Cl)cc1)c1ccc(-n2cccn2)nc1 the Potency was inconclusive [inhibitor, full curve, poor fit].
O=C(Nc1cccc(S(=O)(=O)N2CCOCC2)c1)c1ccccc1[N+](=O)[O-] was tested, and the Potency was inconclusive [inhibitor, single point].
With Cc1ccc(-c2csc3ncn(CC(=O)N4CCOCC4)c(=O)c23)cc1 the Potency was inconclusive [inhibitor, full curve, poor fit].
With O=c1/c(=C\c2ccc(F)cc2)sc2n1CCCN=2 the Potency was inconclusive [inhibitor, full curve, poor fit].
For CCCN(C(=O)c1nc2nccc(C)n2n1)c1c(N)n(Cc2ccccc2)c(=O)[nH]c1=O, the Potency was inconclusive [inhibitor, full curve, poor fit].
With Cc1cccc(-c2noc(-c3cccnc3NCc3ccccc3Cl)n2)c1 the Potency was “inactive”.
CCOC(=O)C1CCN(C(=O)c2ccccc2Oc2ccccc2)CC1 was tested, and the Potency was inconclusive [inhibitor, full curve, poor fit].
With Cn1c(=O)c(=O)n(C)c2cc(S(=O)(=O)N3CCN(C4CCCCC4)CC3)ccc21 the Potency was “inactive”.
For C=CCNC(=O)c1c(C(F)(F)F)nn(C)c1Cl, the Potency was inconclusive [inhibitor, full curve, poor fit].
O=C(Nc1ccc(Oc2ccc(C(F)(F)F)cn2)c(Cl)c1)C1CC1 was tested, and the Potency was “inactive”.
Cc1cc(N2CCCC2)nc(N2C3CCC2CC(O)(c2ccc(F)cc2)C3)n1 (configuration not stated) was tested, and the Potency was “inactive”.
For CCSC1=C(C#N)C2(CCCC2)C(C#N)=C(N)N1, the Potency was inconclusive [inhibitor, single point].
In the case of C=CCc1ccc(OCCOCCN(C)C)c(OC)c1, the Potency is reported as “inactive”.
With COc1ccc(S(=O)(=O)CCC(=O)NCCc2cccc(C)c2)cc1 the Potency was inconclusive [inhibitor, full curve].
In the case of C/C(=N/NC(=O)Cc1ccccc1)c1ccc(C)s1, the Potency is reported as “inactive”.
In the case of O=c1ccc2ccccc2o1, the Potency is reported as inconclusive [inhibitor, partial curve, poor fit].
For COc1ccc(-c2nc(=S)[nH][nH]2)cc1, the Potency was inconclusive [inhibitor, partial curve, poor fit].

Reference: PubChem BioAssay AID485294 (National Center for Advancing Translational Sciences (NCATS), 2010)
Also: nearly all actives have a fitted effect of over 25% in size.
Potency is read from the fitted curve at half-maximal effect; tags tell the direction and shape of the fitted curve.
